Assay results from PubChem BioAssay AID1508624 (National Center for Advancing Translational Sciences (NCATS), 2021).
The campaign covered roughly 48,000 compounds. About 120 (0.25%) were called active. Not shown: some 4% with an inconclusive outcome. The call rests on the fitted dose curve; in most records, active means well fitted activation curve with a large enough effect; inconclusive means small, poorly fitted or top-dose-only effect, or another doubt; inactive means no such curve, though single readings can be large or run the other way. Some of the results follow.

Experiment: Primary qHTS for Identification of Small Molecule Activators of Huntingtin-Antisense Promoter Activity; further: nearly all actives have a fitted effect of over 55% in size
Details: HEK293 HTT-AS promoter firefly luciferase reporter (activity 0% = vehicle and -100% = no light), 24 h; series mostly up to 57.5 µM; activity change, positive = activation: at the top concentration
How it was run: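 HEK293 Fluc reporter, 2,500 cells/well, 24 h pre-culture; cpds up to 57.5 uM final, 24 h 37 degrees C; Dual-Glo, 10 min RT; normalized vehicle = 0%, zero RLU = -100%.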

Activity change, positive = activation, inactive:
CCn1cc(C(=O)NCCc2ccc(Cl)cc2)c(=O)c2cc(S(=O)(=O)N3CCC(C)CC3)ccc21 0.566%
O=C(c1ccc(F)cc1)n1nc(-c2ccccc2)nc1NCc1ccco1 17.4%
O=C(NC1CCCCC1)c1ccc2c(c1)N(Cc1ccc(Cl)cc1)C(=O)c1ccccc1S2=O (stereo not given) -26.5%
Cc1cccc(NC(=O)CCNS(=O)(=O)c2cccc3nsnc23)c1C -12.4%
COc1ccc(N(CC(=O)N2CCN(c3ccccc3F)CC2)S(=O)(=O)c2c(C)n[nH]c2C)cc1 -16.6%
O=C(c1ccc(CS(=O)c2ccccc2Cl)o1)N1CCN(c2cccc(Cl)c2)CC1 (stereo not given) -50.2%
CC(CNC(=O)CCCn1c(=O)c2cccn2c2cccnc21)c1ccccc1 (stereo not given) -22%
COC(=O)c1ccc(O)cc1 0.403%
COc1cccc(CNC(=O)c2ccc(NC(=O)N3CC(C)Sc4ccccc43)cc2)c1 (stereo not given) -15%
Cc1ccccc1Nc1c(-c2ccncc2)nc2ccc(Cl)cn12 6.82%
COc1ccc(CCNC(=O)c2ccc(CNS(=O)(=O)c3ccccc3)cc2)cc1OC -15.6%
COc1cc(NC(=O)c2ccc(NC(=O)N3CCSc4ncccc43)cc2)cc(OC)c1 10.5%
CC(C)(C)OC(=O)N1CCC(c2c(C(=O)N3CCN(C(=O)c4ccco4)CC3)cnn2-c2ccccc2)CC1 -3.05%
Cc1cccc(CCNC(=O)C2CCCN(S(=O)(=O)c3ccc4c(c3)oc(=O)n4C)C2)c1 (stereo not given) -28.2%
CCOc1cccc2sc(N(CCN(CC)CC)C(=O)c3ccco3)nc12 -11.4%
Cc1ccc2nc(Cl)c3cc(C(=O)NC4CCCCCC4)sc3c2c1 -14.4%
CCC1CN(C(=O)Nc2ccc(C(=O)O)cc2)c2cc(Cl)ccc2O1 (stereo not given) -6.29%
O=C(CSc1cn(CC(=O)N2CCCC2)c2ccccc12)Nc1cc(C(F)(F)F)ccc1Cl -32.5%
Cc1cccc(NC(=O)Cc2csc(COc3cccc(C)c3)n2)c1 12.7%
Cc1cccc(C(=O)NCC(=O)OCc2cc(=O)n3nc(C4CC4)sc3n2)c1 -7.08%
Cc1cc(C)cc(NC(=O)CCc2c(C)nc3c4cccnc4nn3c2C)c1 -12.7%
CCOC(=O)Cn1c(=O)n(C2CCCCC2)c2nc(-c3cccc(OC)c3)nc(C(N)=O)c21 -0.384%
CCc1nn2c(=O)c(S(=O)(=O)Nc3cccc(F)c3)c(C)nc2s1 -11.8%
CCC(Sc1nc2nccnc2c(=O)n1Cc1ccc(C)cc1)C(=O)NC1CCCCC1 (stereo not given) -17.5%
CCOc1ccc(S(=O)(=O)Nc2ccc(-c3ccc(OC)nn3)cc2)cc1 -14.7%
Cc1cccc(-n2c(SCC(=O)c3ccccc3)nnc2-c2ccc(Br)cc2)c1 -6.78%
Cc1ccc(Cl)cc1NS(=O)(=O)c1cc2c3c(c1)CC(=O)N3CCC2 -11.7%
Cc1c2cnn(-c3ccccc3)c(=O)c2c(C)n1CC(=O)NCc1ccccc1 -14.5%
CCCNC(=O)N1CCN(S(=O)(=O)c2ccc3c(ccn3C)c2)CC1 -29.3%
COc1cc2c(c(OC)c1)C(c1cc(OC)c(OC)c(OC)c1)CC(=O)N2 (stereo not given) -12.7%
Cc1ccc(CNC(=O)Cn2c(=O)n(-c3cccc(Cl)c3)c(=O)c3sc4ccccc4c32)cc1 -15.4%
CCOc1ccc(-c2cc3nc(C4CCN(C(=O)OC(C)(C)C)CC4)c(C(=O)Nc4ccc(C)cc4C)cn3n2)cc1 5%
COc1ccccc1N1CCN(C(=O)c2cc3ccc4ccc(C)[nH]c4c3n2)CC1 -16.2%
CCOC(=O)C1CCCN(S(=O)(=O)c2csc(C(N)=O)c2)C1 (stereo not given) -29.7%
Cc1ccc2c(c1)-c1c(cnn1CC(=O)Nc1ccccc1C#N)CO2 -19.7%
CC(=O)N1CCCc2cc(S(=O)(=O)N3CCCC(C(=O)N4CCN(c5cc(C)ccc5C)CC4)C3)ccc21 (stereo not given) -52.2%
Cc1ccc(OC(=O)CSc2nnc(CNC(=O)c3ccccc3)o2)cc1 2.92%
Cc1ccc(C(=O)COC(=O)CCC(=O)Nc2ccc(Oc3cc(C)ccc3C(C)C)cc2)cc1 -20.7%
CCc1ccc(C2=NN(CCC(=O)NCCc3ccc(Cl)cc3)C(=O)CC2)cc1 -19%
O=C(NCC(c1ccccc1)c1ccccc1)c1nn(-c2ccccc2F)nc1CO -37.3%
Cc1ccc(CCNC(=O)CCSCc2ccccc2Cl)cc1 -6.27%
CCCn1c2ccccc2c2cnn(CC(=O)NC(CCSC)C(=O)OC)c(=O)c21 (stereo not given) -8.74%
CCOC(=O)c1nnc2c(-c3ccc(Cl)cc3)c(C)nn2c1C -12.7%
Cc1c(C(=O)NCCN(C)C)sc2nc3n(c(=O)c12)CCC3 -4.94%
C[C@@H]1C[C@H]2[C@@H]3C[C@H](F)C4=CC(=O)C(Cl)=C[C@]4(C)[C@@]3(F)[C@@H](O)C[C@]2(C)[C@@]1(O)C(=O)CO -8.23%
COc1cc(NC(=O)c2c(C)oc3ncnc(N4CCCCC4)c23)cc(OC)c1 -17%
Cc1ccc2c(c1)c(=O)c1ccccc1n2CCCC(=O)Nc1c(F)cccc1F -10.2%
CCCS(=O)(=O)c1nc(S(=O)(=O)c2ccc(C)cc2)c(NCc2ccccc2)s1 -19.1%
CN(Cc1ccccc1)C(=O)c1cn(C)c2ccc(S(=O)(=O)N(C)C3CCCCC3)cc2c1=O -5.08%
CCOC(=O)c1ccc(N2C(=O)c3n[nH]c(-c4cccs4)c3C2c2ccc(Cl)cc2Cl)cc1 (stereo not given) -77.5%
COc1ccc(/C=C(/C#N)c2nc(-c3ccc(Br)cc3)cs2)cc1 -16.7%
Cc1cc(Br)ccc1NC(=O)C1CCN(S(=O)(=O)c2ccc(Br)s2)CC1 -12.3%
CCOc1ccc(NC(=O)CCS(=O)(=O)c2ccc(Br)cc2)cc1 -18.9%
COc1ccc(NC(=O)c2c(C)oc3ccc(O)c(CN4CCN(Cc5ccccc5)CC4)c23)cc1 -13%
Cc1cccc(Cn2c(SCc3ccc(C(=O)NC4CCCCC4)cc3)nc3ccncc32)c1 -1.99%
CCC(=O)N1CCc2cc(S(=O)(=O)CCC(=O)NCc3cccc(OC)c3)ccc21 -15.9%
Cn1ncc(C(=O)N2CCN(c3ccccc3F)CC2)c1C1CCN(C(=O)OC(C)(C)C)CC1 -11.8%
Cc1cc(SCC(=O)NCc2ccc(F)cc2)nc(=O)[nH]1 2.61%
CC(=O)c1ccc(NC(=O)CSc2nccn2Cc2ccc3c(c2)OCO3)cc1 -12.3%
CCCCN(CC)CCCNC(=O)c1cn(CC)c2ccc(S(=O)(=O)N3CCOCC3)cc2c1=O -10.4%
